# Source: PubChem BioAssay AID686971 (National Center for Advancing Translational Sciences (NCATS), 2013)
# The whole screen tested about 360,000 compounds, of which about 7,500 (2.1%) were called active. Inconclusive means that the source gave no clear call. Such entries were picked first, then a sample of the others. The call rests on the fitted dose curve; in most records, active means well fitted cell-killing curve with a large enough effect; inconclusive means small, poorly fitted or top-dose-only effect, or effect the other way, or another doubt; inactive means no such curve, though single readings can be large or run the other way. Potencies of inconclusive entries are left out as doubtful fits.
# Assay: qHTS for induction of synthetic lethality in tumor cells producing 2HG: qHTS for the HT-1080-IDH1KD cell line
# Conditions: HT-1080 IDH1 knockdown viability, ATP luminescence, 48 h; series mostly up to 46.1 µM
# Procedure, shortened: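 In this qHTS, HT-1080 cells depleted of IDH1 are exposed for 48 h at 37 °C to compound titrations. Toxicity is scored from CellTiter-Glo luminescence, with DMSO as full viability and medium alone as none.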
# Potency means the concentration at half of the fitted maximal effect; tags describe the fitted curve by direction and shape.
row,SMILES,Potency
1,CSc1ccc(-c2sc(Nc3cccc4ccccc34)n[n+]2-c2ccccc2)cc1,inactive
2,CCOC(=O)Cc1csc(NC(=O)COc2ccc(N(C)S(=O)(=O)c3cccs3)cc2)n1,inactive
3,O=C(Nc1nc(-c2ccccn2)cs1)C1COc2ccccc2O1 (centres undefined),"inconclusive [cytotoxic, single point]"
4,c1ccc2c(c1)Cc1cc3ccccc3nc1-2,"inconclusive [cytotoxic, partial curve]"
5,Cc1cccc(-c2cc3nc(-c4ccccc4)cc(=O)n3[nH]2)c1,"inconclusive [cytotoxic, partial curve]"
6,Cc1cc(N2CCC(C(=O)Nc3ccc(F)cc3)CC2)nc(-c2ccccc2)n1,"inconclusive [cytotoxic, single point]"
7,O=C(Nc1ccccc1)Nc1cccc(Cl)c1Cl,"inconclusive [cytotoxic, partial curve]"
8,CC1CCCCC12NC(=O)N(CC(=O)Nc1ccc3[nH]c(=O)[nH]c3c1)C2=O (centres undefined),inactive
9,Cc1c(C(=O)N(C)Cc2ccc(F)cc2)sc(=O)n1Cc1ccc(Cl)c(Cl)c1,"inconclusive [cytotoxic, single point]"
10,COc1ccccc1C(=O)NNC(=O)CN1C(=O)c2ccccc2C1=O,inactive
11,c1ccc2sc(SCc3ccc(-c4nnco4)cc3)nc2c1,"inconclusive [cytotoxic, single point]"
12,Cc1cc(C)nc(SC2CC(=O)N(c3ccc(C)c(C)c3)C2=O)n1 (centres undefined),active: 16.4 µM
13,COc1cc(/C=C(/C#N)c2ccc(F)cc2)ccc1OCc1ccc(C(=O)O)o1,"inconclusive [cytotoxic, single point]"
14,CN(Cc1ccc(C#CCCO)cc1)CC1CCCN(CCc2ccc(Cl)cc2)C1 (centres undefined),"inconclusive [cytotoxic, partial curve]"
15,Brc1ccc(COc2ncnc3ccccc23)cc1,"inconclusive [cytotoxic, single point]"
16,O=C1N[C@@H](Cc2c[nH]c3ccccc23)COC(=O)[C@@H](Cc2ccc(F)cc2)C/C=C\C[C@H]1CC(=O)N(CCO)Cc1ccccc1,"inconclusive [cytotoxic, single point]"
17,Cc1ccc(C2=NNC(=Nc3ccc(F)cc3)SC2)cc1,"inconclusive [cytotoxic, single point]"
18,CN(NS(=O)(=O)c1ccc([N+](=O)[O-])cc1)c1ccccc1,"inconclusive [cytotoxic, single point]"
19,COCc1nnc(NC(=O)c2ccc(S(=O)(=O)N(C)C3CCCCC3)cc2)o1,"inconclusive [cytotoxic, single point]"
